Assay results reported in paper PMC7819943, “Rice protein-binding microarrays: a tool to detect cis-acting elements near promoter regions in rice”.
The list shows a part of the results.

The sequences below were run against T1, OsWOX13 (Oryza sativa, UniProt Q5QMM3 1-267) (assay: protein-binding microarray (RPBM); PBS, 2% BSA, 51.3 ng/ul salmon testes DNA, 50 uM zinc acetate, 200 nM TF, 25 C, 1 h; high values mean tight binding). Conditions: protein: recombinant; tags: N-terminal polyhistidine and DsRed monomer fusion (pET32a); label: CyDye5-dUTP incorporated in the synthesized complementary strand; 3' TTTTT single-stranded linker to array surface; dsDNA, one strand shown.
T1 sequence: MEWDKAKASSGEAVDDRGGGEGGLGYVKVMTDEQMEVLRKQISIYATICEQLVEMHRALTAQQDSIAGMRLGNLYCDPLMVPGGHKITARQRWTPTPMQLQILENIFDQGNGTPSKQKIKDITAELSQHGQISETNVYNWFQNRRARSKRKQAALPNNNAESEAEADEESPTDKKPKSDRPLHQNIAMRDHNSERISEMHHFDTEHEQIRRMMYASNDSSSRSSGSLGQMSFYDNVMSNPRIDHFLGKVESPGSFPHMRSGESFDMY
Outline: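 In PBS with 2% BSA, salmon testes DNA and 50 µM zinc acetate, 200 nM protein was incubated on a custom Agilent array at 25 °C for 1 h and then washed off. The array had been made double-stranded by primer extension with Cy5-dUTP and blocked with 2% BSA. The proteins were transcription factors fused N-terminally to polyhistidine and DsRed, expressed in E. coli BL21-CodonPlus and purified on Ni–NTA. The binding signal is per-feature fluorescence intensity (arbitrary units) from an Axon 4000B scanner.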

Sequence | binding signal
TGGGTAATTTATCGATAACGCACCCCTTAAATATGCAAATCGGAGTCACCTAGTGCAG | 6500 fluorescence intensity (a.u.)
TGATTGCTTTTCGTCAATTAGCCGCACAGCACAGTACTCTCGGAGTCACCTAGTGCAG | 5160 fluorescence intensity (a.u.)
TCACCTAGATTATTAAGAATTTTAACTGTTCAAGGAAACTCGGAGTCACCTAGTGCAG | 4360 fluorescence intensity (a.u.)
AACAACATCTCGAGATAATTGGTGCCACCAATTCCACCAACGGAGTCACCTAGTGCAG | 5800 fluorescence intensity (a.u.)
CGTGTGCAGTGCAGTGATGATTGAGAAAGGCCATGCCATACGGAGTCACCTAGTGCAG | 3900 fluorescence intensity (a.u.)
TTTCTGTTGTGCAAGAGGTGATTGGTTAACATCTCGAAAGCGGAGTCACCTAGTGCAG | 11200 fluorescence intensity (a.u.)
CATAATCATCCATCCTATTTAAACAAACATATCTGCAGGTCGGAGTCACCTAGTGCAG | 4410 fluorescence intensity (a.u.)
CTAAATTACACCTTGTATACATACTACTATACGGTACAGTCGGAGTCACCTAGTGCAG | 16800 fluorescence intensity (a.u.)
AAAATTTGGTTGAAATTGAAACGATGTGACGGAAAAGTTGCGGAGTCACCTAGTGCAG | 6780 fluorescence intensity (a.u.)
TTGTGATTGGTGAGAGGCCTTCCAAATTTGTAACTTTCCACGGAGTCACCTAGTGCAG | 44000 fluorescence intensity (a.u.)
TCTAACTAGATATAATTAAAGTGATTTTACAGCTCTTGAGCGGAGTCACCTAGTGCAG | 34900 fluorescence intensity (a.u.)
GAGTAATTTACTCTTTAGAAATTGACATAGATGTTATCAGCGGAGTCACCTAGTGCAG | 25600 fluorescence intensity (a.u.)
TTTCTATTAACTGCAATAATGGTTCGACAGTGTGCGCGTACGGAGTCACCTAGTGCAG | 11800 fluorescence intensity (a.u.)
TGCCATGTCACCGCGATGTTGATTTATGACTGGATTTCACCGGAGTCACCTAGTGCAG | 16300 fluorescence intensity (a.u.)
TTTGATTTCCCCATCCATCATCGAAGCATCATCAAGCAGACGGAGTCACCTAGTGCAG | 13800 fluorescence intensity (a.u.)
CTAAATGATCTCTTTATTAATCCCTTGTACACCTGTAACCCGGAGTCACCTAGTGCAG | 6760 fluorescence intensity (a.u.)
ACATTGACTGCACCTGTACAAATCATCAAATGTTTGAAGTCGGAGTCACCTAGTGCAG | 14300 fluorescence intensity (a.u.)
AATTAATTATGGTCGACTCCGACTCGTTAACCACATGTTTCGGAGTCACCTAGTGCAG | 21400 fluorescence intensity (a.u.)
TTTACATAATTATAAATTATTTTGTTATGAGTTGTTTTATCGGAGTCACCTAGTGCAG | 20700 fluorescence intensity (a.u.)
GCGCAATTGGATTGAAGAATATTCAGATCATAGTTTTCCTCGGAGTCACCTAGTGCAG | 14800 fluorescence intensity (a.u.)
AATTAAATTTAAGTTCTACACTTAAATTAGTTTGCTTAAGCGGAGTCACCTAGTGCAG | 11700 fluorescence intensity (a.u.)

Sequence | binding signal
AAAGGTATTAATTGCAGTTAGCTCAGAATTTCTCAGCCAACGGAGTCACCTAGTGCAG | 7130 fluorescence intensity (a.u.)
TGGAAATTAATTATAAATATTAAACGTAGACTATTAATAACGGAGTCACCTAGTGCAG | 7050 fluorescence intensity (a.u.)
GATGGTGAGGTGATTTGCAACTTGCAAGATTGTTGCCCTTCGGAGTCACCTAGTGCAG | 3460 fluorescence intensity (a.u.)
ATCAAATTATCACCTTAATCTCATCATCAATTCTGTCGTACGGAGTCACCTAGTGCAG | 18300 fluorescence intensity (a.u.)
CAGGTTAATTTATGCAATTAACCGTGCTATCACGAACCACCGGAGTCACCTAGTGCAG | 36000 fluorescence intensity (a.u.)
TTAATTAATCACGTGTTAATAAATAACTCTGTTTTACATGCGGAGTCACCTAGTGCAG | 16500 fluorescence intensity (a.u.)
AGAATTAATCTCGCACACTAATTATAGGTCCAGCTAAGTTCGGAGTCACCTAGTGCAG | 13500 fluorescence intensity (a.u.)
TTCATCAATCCAATTGCAAGAATTGAATTCAATTTGGTGTCGGAGTCACCTAGTGCAG | 7130 fluorescence intensity (a.u.)
GTAAACTGCATATTAACGCCTGAATTCATTGGTAGTGCCACGGAGTCACCTAGTGCAG | 12500 fluorescence intensity (a.u.)
CCACTGCATTAATTGTGTTTTCCTTTGCAAACAAATCAATCGGAGTCACCTAGTGCAG | 6490 fluorescence intensity (a.u.)
TTATTAATTATCATATTAGTAGTAGTAGTAGTAGCTAGGCCGGAGTCACCTAGTGCAG | 34100 fluorescence intensity (a.u.)
CATAATAATTATATAGTCCGTCTTAGCATAAGCCACGGGGCGGAGTCACCTAGTGCAG | 22200 fluorescence intensity (a.u.)
TATATATATATATATATATGTGTGTGTGTGTGTGTATGGTCGGAGTCACCTAGTGCAG | 5650 fluorescence intensity (a.u.)
AAATATATAGATTGGATACGATACATGATAAGTGATGGCACGGAGTCACCTAGTGCAG | 22300 fluorescence intensity (a.u.)
AATGATTAGAGATTAATCACTAATCAAGATAATTAATCAGCGGAGTCACCTAGTGCAG | 49500 fluorescence intensity (a.u.)
CACCCATGACTGTCTTTCTTCAATTGAAATGAATTATTGTCGGAGTCACCTAGTGCAG | 5390 fluorescence intensity (a.u.)
ACGTTTAACTTTCTTGTAATTTGCTATTTAAGGTTAAGCTCGGAGTCACCTAGTGCAG | 6740 fluorescence intensity (a.u.)
CAGATGATTGTAGATGATCAAAGCTTTAATATGCATCTTGCGGAGTCACCTAGTGCAG | 40900 fluorescence intensity (a.u.)
TACACAGATTGCGTGTAAATTGCGAGACGAATCTTTTAAGCGGAGTCACCTAGTGCAG | 17100 fluorescence intensity (a.u.)
TATTATGTGATTAATTGTATGCATCGTTGGAGTTTCAACTCGGAGTCACCTAGTGCAG | 16900 fluorescence intensity (a.u.)
ACTTATCACTCTAATCACTCATTGCATACACGGTTAATTACGGAGTCACCTAGTGCAG | 8280 fluorescence intensity (a.u.)
